Experimental data reported in paper PMC11995724, “Antibiotic target discovery by integrated phenotypic and activity-based profiling of electrophilic fragments” (Cell chemical biology, 2025).
The whole screen tested about 3,200 compounds, of which about 75 (2%) showed an effect of 50% or more. Some of the results follow.

Each molecule was assayed on T1, S. aureus MSSA476. Conditions: relative growth, OD600, TSB; 25 µM; inhibitor.
T1 construct: MSSA476
Set-up: species or system S. aureus MSSA476 (TSB) or V. cholerae SAD30 (LB); 384-well bacterial growth screen at 25 uM, OD600 relative to DMSO control

Row | Structure (SMILES) | % of control remaining
1 | Cl.O=C(CCl)N1CCN(CC=Cc2ccccc2)CC1 [4-F16, 2-chloro-1-[4-(3-phenylprop-2-en-1-yl)piperazin-1-yl]ethan-1-one hydrochloride] | 103.668%
2 | N#CC(=Cc1ccco1)C(=O)Nc1cccc(Cn2cccn2)c1 [8-I20, 2-cyano-3-(furan-2-yl)-N-{3-[(1H-pyrazol-1-yl)methyl]phenyl}prop-2-enamide] | 69.7095%
3 | O=C(CCl)N1CCCCC1c1nc(-c2ccccn2)cs1 (stereo not shown) [5-G18, 2-chloro-1-{2-[4-(pyridin-2-yl)-1,3-thiazol-2-yl]piperidin-1-yl}ethan-1-one] | 94.7177%
4 | CSc1ccccc1NC(=O)C(C)Cl (stereo not shown) [4-M12, 2-chloro-N-[2-(methylsulfanyl)phenyl]propanamide] | 99.0948%
5 | O=C(CCl)N1C2CCC1c1ccccc12 [5-M11, 1-{11-azatricyclo[6.2.1.0,2,7]undeca-2,4,6-trien-11-yl}-2-chloroethan-1-one] | 83.4244%
6 | O=C(CCl)Nc1ccccc1C(=O)Nc1ccc(F)cc1 [6-D12, 2-(2-chloroacetamido)-N-(4-fluorophenyl)benzamide] | 76.1463%
7 | C=CC(=O)N1CCC(C(=O)NC2CCOC3(CCSCC3)C2)CC1 (stereo not shown) [2-B12, N-{1-oxa-9-thiaspiro[5.5]undecan-4-yl}-1-(prop-2-enoyl)piperidine-4-carboxamide] | 114.883%
8 | CCCc1cc(NC(=O)CCl)n(-c2ccccc2)n1 [4-M03, 2-chloro-N-(1-phenyl-3-propyl-1H-pyrazol-5-yl)acetamide] | 94.5212%
9 | Cc1ccc2[nH]c3c(c2c1)CCCC3N(C)C(=O)CCl (stereo not shown) [6-H07, 2-chloro-N-methyl-N-(6-methyl-2,3,4,9-tetrahydro-1H-carbazol-1-yl)acetamide] | 85.3659%
10 | COc1ccc(C=C(C#N)C(=O)Nc2ccccc2Cl)cc1O [8-C21, N-(2-chlorophenyl)-2-cyano-3-(3-hydroxy-4-methoxyphenyl)prop-2-enamide] | 81.3278%
11 | Cc1ccc2nc(-c3ccc(NC(=O)CCl)cc3)sc2c1 [6-I05, 2-chloro-N-[4-(6-methyl-1,3-benzothiazol-2-yl)phenyl]acetamide] | 90.1463%
12 | C=CC(=O)N1CCCC(Cc2noc(C)n2)C1 (stereo not shown) [1-L20, 1-{3-[(5-methyl-1,2,4-oxadiazol-3-yl)methyl]piperidin-1-yl}prop-2-en-1-one] | 120.264%
13 | COc1ccc(Cl)cc1CNC(=O)CCl [6-A16, 2-chloro-N-[(5-chloro-2-methoxyphenyl)methyl]acetamide] | 87.4146%
14 | N#CC(=Cc1cccc([N+](=O)[O-])c1)C(=O)NCc1ccc(Cl)cc1 [8-F16, N-[(4-chlorophenyl)methyl]-2-cyano-3-(3-nitrophenyl)prop-2-enamide] | 85.6432%
15 | N#CC(=Cc1sc2ccccc2c1Cl)C(=O)Nc1nccs1 [9-F15, 3-(3-chloro-1-benzothiophen-2-yl)-2-cyano-N-(1,3-thiazol-2-yl)prop-2-enamide] | 101.573%
16 | CC(Cl)C(=O)NCc1ccc(F)cc1 (stereo not shown) [5-A19, 2-chloro-N-[(4-fluorophenyl)methyl]propanamide] | 99.4536%
17 | C=CC(=O)Nc1nc2c(s1)-c1cc(OC)ccc1CC2 [1-J21, N-{8-methoxy-4H,5H-naphtho[2,1-d][1,3]thiazol-2-yl}prop-2-enamide] | 115.692%
18 | Cc1ccc2nc(-c3ccc(N4C(=O)C=CC4=O)cc3)sc2c1 [10-K18, 1-[4-(6-methyl-1,3-benzothiazol-2-yl)phenyl]-2,5-dihydro-1H-pyrrole-2,5-dione] | 130%
19 | Cc1nn(C)c(NC(=O)C(C)Cl)c1-c1ccccc1 (stereo not shown) [7-F21, 2-chloro-N-(1,3-dimethyl-4-phenyl-1H-pyrazol-5-yl)propanamide] | 108.006%
20 | C=CC(=O)NC(C)(C)c1nc(-c2ccccc2F)c(C)s1 [1-H04, N-{2-[4-(2-fluorophenyl)-5-methyl-1,3-thiazol-2-yl]propan-2-yl}prop-2-enamide] | 100.571%
21 | C=CC(=O)N1CCC(Cc2nc(CC)no2)CC1 [3-A11, 1-{4-[(3-ethyl-1,2,4-oxadiazol-5-yl)methyl]piperidin-1-yl}prop-2-en-1-one] | 108.663%
22 | Cc1cccc(NC(=O)C(C#N)=Cc2ccc(F)cc2)c1 [9-E12, 2-cyano-3-(4-fluorophenyl)-N-(3-methylphenyl)prop-2-enamide] | 96.4794%
23 | C=CC(=O)NCCC1COCCO1 (stereo not shown) [2-H15, N-[2-(1,4-dioxan-2-yl)ethyl]prop-2-enamide] | 130.2%
24 | CC(C)(C)C(=O)NCc1ccc(C(=O)CCl)s1 [10-P10, N-{[5-(2-chloroacetyl)thiophen-2-yl]methyl}-2,2-dimethylpropanamide] | 113.75%
25 | C=CC(=O)NCC1(c2ccccc2Cl)CCCCC1 [1-A17, N-{[1-(2-chlorophenyl)cyclohexyl]methyl}prop-2-enamide] | 110.066%
26 | CCOC(=O)c1cnn2ccc(NC(=O)C(C)Cl)cc12 (stereo not shown) [5-N21, ethyl 5-(2-chloropropanamido)pyrazolo[1,5-a]pyridine-3-carboxylate] | 112.933%
27 | C=CC(=O)N1CCC(C(=O)NCCc2c(C)n[nH]c2C)CC1 [2-D04, N-[2-(3,5-dimethyl-1H-pyrazol-4-yl)ethyl]-1-(prop-2-enoyl)piperidine-4-carboxamide] | 98.1723%
28 | C=CC(=O)NCc1cc(C(F)(F)C(F)(F)F)on1 [3-B19, N-{[5-(1,1,2,2,2-pentafluoroethyl)-1,2-oxazol-3-yl]methyl}prop-2-enamide] | 127.819%
